From article PMC4336329 (PLoS ONE, 2015)
About 14,000 (4.5%) of roughly 310,000 compounds showed an effect of 50% or more. Effects have a minus sign here. The list shows a part of the results.

target: human ether-à-go-go-related gene (hERG) potassium channel (human, UniProt Q12809); assay: primary screen, population patch clamp on CHO cells stably expressing hERG
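Note: peak tail current of the secondary pulse compared with the same well before compound.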

human ether-à-go-go-related gene (hERG) potassium channel, sequence (Q12809 whole entry, looked up): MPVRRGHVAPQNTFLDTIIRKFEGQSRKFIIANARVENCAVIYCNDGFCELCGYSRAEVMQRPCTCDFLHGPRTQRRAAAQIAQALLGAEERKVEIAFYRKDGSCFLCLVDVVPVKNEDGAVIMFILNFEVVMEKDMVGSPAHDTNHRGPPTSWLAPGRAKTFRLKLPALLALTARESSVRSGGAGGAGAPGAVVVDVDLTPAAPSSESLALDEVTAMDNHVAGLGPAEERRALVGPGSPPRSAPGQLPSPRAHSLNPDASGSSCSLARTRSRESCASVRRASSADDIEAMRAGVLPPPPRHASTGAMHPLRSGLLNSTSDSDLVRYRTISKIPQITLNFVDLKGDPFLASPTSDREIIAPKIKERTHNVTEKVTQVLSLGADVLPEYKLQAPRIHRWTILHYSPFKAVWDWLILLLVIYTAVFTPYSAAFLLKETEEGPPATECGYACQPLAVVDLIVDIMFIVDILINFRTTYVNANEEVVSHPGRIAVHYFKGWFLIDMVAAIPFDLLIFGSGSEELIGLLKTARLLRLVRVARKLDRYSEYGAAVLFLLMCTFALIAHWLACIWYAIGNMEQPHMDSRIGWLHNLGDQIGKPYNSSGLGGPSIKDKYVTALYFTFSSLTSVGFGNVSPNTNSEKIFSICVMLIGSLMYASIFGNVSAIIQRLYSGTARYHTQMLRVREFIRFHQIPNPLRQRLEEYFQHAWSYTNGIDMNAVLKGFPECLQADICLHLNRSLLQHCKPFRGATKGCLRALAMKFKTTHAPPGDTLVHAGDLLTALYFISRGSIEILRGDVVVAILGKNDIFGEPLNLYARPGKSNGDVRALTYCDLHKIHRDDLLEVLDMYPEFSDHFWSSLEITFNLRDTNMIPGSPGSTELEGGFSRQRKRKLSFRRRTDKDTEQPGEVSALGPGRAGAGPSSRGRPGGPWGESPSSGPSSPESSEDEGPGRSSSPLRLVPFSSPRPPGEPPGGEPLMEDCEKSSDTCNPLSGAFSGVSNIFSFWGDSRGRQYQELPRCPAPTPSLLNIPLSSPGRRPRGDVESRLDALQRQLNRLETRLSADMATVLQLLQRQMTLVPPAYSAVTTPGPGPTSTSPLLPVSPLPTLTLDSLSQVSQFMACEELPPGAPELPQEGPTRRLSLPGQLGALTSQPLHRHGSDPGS

| Structure (SMILES) | hERG current change (%, negative = inhibition) at 10uM |
| --- | --- |
| O=C(NCCOc1cccc(Cl)c1Cl)c1cc(-n2cnnc2)ccc1Cl | -26.5% |
| O=C(c1ccc(S(=O)(=O)Nc2ccccc2F)cc1)N1CCN(c2ccccc2O)CC1 | -8.57% |
| Cc1ccc(CNC(=O)COC(=O)C2CC2)cc1 | 8.2% |
| COC(=O)Cc1nnc(SCC(=O)Nc2ccccc2)c2ccccc12 | -2.47% |
| COc1ccc(OCC(=O)NNC(=O)c2cccc(C)c2)cc1 | 4.57% |
| Cc1ccc(/C=N/NC(=O)Cn2nc(C)c(Br)c2C)o1 | 2.88% |
| COc1ccc(-c2nnc3ccc(SC)nn23)cc1 | -7.69% |
| O=C(Nc1cccc(C(F)(F)F)c1)c1cccnc1N1CCCC1 | 13.2% |
| O=C(NC1CCCCC1)c1ccccc1-c1ccccc1 | -6.12% |
| Cc1ccc(SCC(=O)OCn2nnc3ccccc3c2=O)cc1C | -0.532% |
| CCN(CC)C(=O)C1CC(=O)N(c2ccc(F)c(Cl)c2)C1 (stereo not shown) | 2.5% |
| O=c1c2ccccc2nc(-c2ccc(Cl)cc2Cl)n1-c1nccs1 | -13.8% |
| C[C@@H]1CC[C@H]2C(=O)N3[C@@H](CC[C@@H](C)[C@@H]3c3ccc(Br)cc3)C(=O)N2[C@H]1c1ccc(Br)cc1 | 5.03% |
| O=C(O)c1ccnc(C(=O)O)c1 | 9.11% |
| COc1cc(CC(=O)Nc2ccc(N3CCOCC3)cc2)cc(OC)c1OC | 10.3% |
| Cc1ccc(/C=C/C(=O)OC(C)C(=O)Nc2ccc(Cl)cn2)o1 (stereo not shown) | -17.7% |
| CS(=O)(=O)N1CCC(C(=O)NCc2ccc(F)cc2)CC1 | 15% |
| COc1cc(OC)c(OC)cc1CNCCc1ccc2c(c1)OCO2.O=C(O)C(=O)O | -8.77% |
| CC(C)[C@H](NC(=O)OCc1ccccc1)C(=O)OCC(=O)Nc1c(F)cccc1F | 0.045% |
| Cc1ccc(CN2CCN(/N=C/c3cc([N+](=O)[O-])ccc3Cl)CC2)cc1 | -2.11% |
| CC(=O)N1CCN(S(=O)(=O)c2cccc(C(=O)N(Cc3ccccc3)c3cccc(C)c3)c2)CC1 | -27.4% |
| COc1ccc(C(=O)OCC(=O)Nc2c(C)cccc2C)c(OC)c1OC | 25.8% |

| Structure (SMILES) | hERG current change (%, negative = inhibition) at 10uM |
| --- | --- |
| O=C(C1CCN(S(=O)(=O)c2cccc3cccnc23)CC1)N1CCc2ccccc21 | -10.5% |
| CC(=O)c1ccc(NC2=C(N3CCOCC3)C(=O)c3ccccc3C2=O)cc1 | -25.6% |
| N#Cc1nc(Cc2cccc3ccccc23)oc1NCCCN1CCOCC1 | -26.3% |
| CC(=O)c1cccc(Nc2nc(-c3cccnc3)cs2)c1 | -9.48% |
| C=CCCN(Cc1ccccc1)S(=O)(=O)c1cc(Br)ccc1Br | 0.208% |
| COc1ccc2c(c1)c(=O)cc(C)n2CC(=O)NCc1ccco1 | -28% |
| COc1ccc(CCNS(=O)(=O)c2cn(C)c(=O)n(C)c2=O)cc1OC | 8.4% |
| Cc1ccc(S(=O)(=O)N(C)C)cc1NC(=S)NC(C)CCC(C)C (stereo not shown) | -14% |
| O=C(NCC(c1ccco1)N1CCCCC1)c1cccnc1 (stereo not shown) | -10% |
| Cc1cc(NC(=O)c2sc(Nc3ccc(F)c(Cl)c3)nc2N)no1 | 4.93% |
| COc1ccccc1NS(=O)(=O)c1cc(NC(=O)/C=C/c2cccs2)ccc1N1CCOCC1 | -2.6% |
| O=C(O)c1ccccc1C(=O)Nn1cnnc1 | 10.6% |
| CC1CCCCC1NC(=O)/C(C#N)=C/c1ccccc1F (stereo not shown) | -7.9% |
| CC1COc2ccccc2N1C(=O)c1ccc(F)cc1 (stereo not shown) | 4.48% |
| Cn1cccc1CC(=O)NNC(=O)Nc1ccccc1F | 7.76% |
| CC(C)(C)c1ccc(S(=O)(=O)/N=C2\C=C(NS(=O)(=O)c3ccccc3)C(=O)c3ccccc32)cc1 | -2.61% |
| Nn1c(SCC(=O)N2CCCCCC2)nnc1-c1ccncc1 | -9.28% |
| O=C(C1CCC(Cn2c(=S)[nH]c3ccccc3c2=O)CC1)N1CCN(c2ccccn2)CC1 (stereo not shown) | 17.3% |
| Cc1ccc2oc(=O)c3cnn(CC(=O)NCCN4CCOCC4)c3c2c1 | 4.28% |
| COc1cc2c(cc1OC)C(c1ccccc1Cl)N(C)CC2 (stereo not shown) | 1.73% |
| Cc1oc(S(=O)(=O)N2CCCC2)cc1C(=O)Nc1ccc(F)cc1 | -15.8% |
| Cc1nc2cc(Cl)ccc2n1-c1ccccc1 | -16.3% |

| Structure (SMILES) | hERG current change (%, negative = inhibition) at 10uM |
| --- | --- |
| CCCc1nnc(SCC(=O)Nc2ccc(Cl)cc2Cl)o1 | -5% |
| COCCNC(=O)CCN1N=C(c2ccccc2)CCC1=O | 15% |
| CCN(CC)CCn1c2ccccc2c2cnc(N)c(C#N)c21 | -60.5% |
| COC(=O)Cn1ncc2c3ccccc3n(Cc3ccccc3)c2c1=O | -0.623% |
| Cc1ccc(S(=O)(=O)[N-]c2nc3ccccc3nc2-[n+]2cc(C)cc(C)c2)cc1 | 0.96% |
| CC(C)NC(=O)CN1CCN(Cc2nc(C(c3ccccc3)c3ccccc3)no2)CC1 | -23.6% |
| CC(=O)N1CCC(=NNc2nc3ccccc3[nH]2)CC1.O=C(O)C(=O)O | 24.4% |
| Cc1cccc(N(C(=O)CNC(=O)c2ccco2)C(C(=O)NCC2CCCO2)c2ccccc2)c1 (stereo not shown) | 9.57% |
| O=c1[nH]c(CSc2ccccn2)nc2c1oc1ccccc12 | 23% |
| O=C(COc1ccc2ccc(=O)oc2c1)NCCCn1ccnc1 | 0.322% |
| CCOC(=O)C1=C(CS(=O)(=O)c2ccccc2)NC(=O)NC1c1cccc(OC)c1 (stereo not shown) | 8.83% |
| O=C(Cn1ccsc1=NC(=O)C(F)(F)F)c1ccccc1 | -17.6% |
| CCN(CC(=O)Nc1c(F)cccc1F)C(=O)c1ccc(Cl)c(S(=O)(=O)N2CCCCC2)c1 | 8.17% |
| CCCCn1c(N)c(N(CCC(C)C)C(=O)COC(=O)c2cccnc2OCC)c(=O)[nH]c1=O | -1.62% |
| Cc1oc2c(CN3CCOCC3)c(O)ccc2c(=O)c1-c1ccccc1 | 18.2% |
| Cc1ccc(S(=O)(=O)N/N=C/c2ccc(O)cc2O)cc1[N+](=O)[O-] | -1.82% |
| C=CCn1c(SCC(=O)NCC2CCCO2)nc2scc(-c3ccc(OC)cc3)c2c1=O (stereo not shown) | -14.9% |
| CCOC(=O)[C@H]1NN=C(C(=O)OC)[C@@H]1c1ccccc1 | -1.08% |
| COc1cccc(CNC(=O)Cc2ccc(-n3c(=O)[nH]c4ccccc4c3=O)cc2)c1 | 10.1% |
| O=c1[nH]c2ccccc2s1 | 11.4% |
| CN(C)CCCN(C(=O)COc1ccccc1)c1nc2c(Cl)cccc2s1.Cl | -66.9% |
| Cc1cccc(N(C)S(=O)(=O)c2nnc(NC(=O)c3ccco3)s2)c1 | -0.361% |

| Structure (SMILES) | hERG current change (%, negative = inhibition) at 10uM |
| --- | --- |
| O=C(Nc1nncs1)c1cccnc1Cl | 17.7% |
| O=c1cc(O)c(-c2ccc(Cl)cc2)c(Cl)[nH]1 | -0.739% |
| CCc1nnc(NC(=O)CSc2nnc(-c3ccc(S(=O)(=O)N(CC)CC)cc3)n2CC)s1 | 6.02% |
| CC(C)c1ccc(SCc2noc(C(=O)NCC3CCCO3)c2C(=O)O)cc1 (stereo not shown) | 4.92% |
| O=C(Nc1ccc(F)cc1)c1c(Cl)nc2ccccn12 | -34.9% |
| CCOc1ccc2oc(C(=O)O)c(C)c2c1 | 4.62% |
| CC(=O)Nc1ccc(CN2CCCC(C(=O)c3ccc(C(F)(F)F)cc3)C2)cc1 (stereo not shown) | -77.3% |
| COc1ccc(NC(=O)Cc2nnc(SCC(=O)NC3CCCCC3)n2C)cc1 | 9.92% |
| COc1ccc(OCC(=O)Nc2ccc3c(c2)nc2n3CCSC2)cc1 | -3.43% |
| CCCc1cc(=O)oc2cc(OCC(=O)NC(Cc3c[nH]c4ccc(O)cc34)C(=O)O)c(Cl)cc12 (stereo not shown) | 13% |
| COCc1cc(C)nc(SCC[N+](C)(C)CC(=O)c2ccccc2)c1C#N.[Br-] | 34% |
| FC(F)(F)c1nc2ccccc2n2c(-c3c(Cl)cccc3Cl)nnc12 | -7.37% |
| c1ccc(-n2nnnc2CN2CCOCC2)cc1 | 14.8% |
| COc1ccccc1NS(=O)(=O)c1ccc(C)c(C(=O)N2CCCC2)c1 | 2.31% |
| CS(=O)(=O)c1ccc2nc(NC(=O)CN3C(=O)NC4(CCCC4)C3=O)sc2c1 | -4.88% |
| CCc1noc(C)c1C(=O)Nc1nc(-c2ccc(F)cc2)c(C)s1 | 7.05% |
| CC(=O)c1ccccc1NC(=O)C1C2CCC(O2)C1C(=O)O (stereo not shown) | 8.81% |
| CCC(C(=O)NC1CCCC1)N(Cc1ccco1)C(=O)Cn1nnc(-c2ccc(C)cc2)n1 (stereo not shown) | -9.13% |
| COc1cc(NC(=O)c2ccco2)c(OC)cc1NC(=O)CCC(=O)Nc1cc(C)cc(C)c1 | -9.18% |
| O=C(CSc1n[nH]c(=O)n1C1CC1)NCc1ccccc1Cl | 21% |
| Cn1cnnc1SC(C(=O)Nc1ccc(F)cc1)c1ccccc1 (stereo not shown) | -24.8% |
| Cc1ccc(CN2C(=O)CSC2c2ccccc2F)cc1 (stereo not shown) | 3.9% |
